Test results from the supplement of paper PMC9135407.
“And” between values parts separate entries of the source, which are not always exact repeats. Equal entries are not always repeated. Structures can show the parent of a compound that is named as a salt. In all, about 5,800 compounds went through this assay and about 620 (11%) showed activity.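 Rule for the calls: active = score above a cut-off or among the top three wells of a plate; in these data no inactive exceeds 0.85.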 The list shows a part of the results, in another mix than the full data.

System: primary human hepatic stellate cells (donor 1)
Experiment: scaled lipid accumulation score (0 = DMSO-like, 1 = nortriptyline-like); higher = stronger HSC inactivation (lipid re-accumulation), active = hit call of the paper
Settings: 48 h
[1] = library stock concentration: 3.33 mM
[2] = library stock concentration: 10 mM
[3] = library stock concentration: 4.5 mM
[4] = library stock concentration: 1 mM
[5] = library stock concentration: 80 uM
[6] = library stock concentration: 400 uM
[7] = library stock concentration: 2 mM
[8] = library stock concentration: 5.2 mM

With `NCc1ccccc1CC(=O)N[C@@H]1C(=O)N2C(C(=O)O)=C(CSc3nnnn3CC(=O)O)CS[C@H]12` [Ceforanide] the “scaled lipid accumulation score” value was inactive: ≤ 0.
With `COc1c2occc2cc2ccc(=O)oc12` [Methoxy-8-psoralen] the “scaled lipid accumulation score” value was inactive: ≤ 0.
For `COc1c2occc2cc2ccc(=O)oc12` [Methoxsalen], the “scaled lipid accumulation score” value [1] was inactive: ≤ 0, the “scaled lipid accumulation score” value (library stock concentration: 9.3 mM) was inactive: ≤ -0.001 and the “scaled lipid accumulation score” value [2] was inactive: ≤ 0.
`CC(C)CC(N)=O` was tested, and the “scaled lipid accumulation score” value [2] was inactive: 0.291.
In the case of `CC(C)CC(N)=O` [Isovaleramide], the “scaled lipid accumulation score” value [1] is reported as inactive: ≤ 0 and the “scaled lipid accumulation score” value [2] is reported as inactive: ≤ -0.001.
With `CN1CCN(C2=Nc3ccccc3Oc3ccc(Cl)cc32)CC1` the “scaled lipid accumulation score” value [2] was inactive: 0.608.
In the case of `CN1CCN(C2=Nc3ccccc3Oc3ccc(Cl)cc32)CC1` [Loxapine Succinate], the “scaled lipid accumulation score” value [1] is reported as inactive: ≤ 0 and the “scaled lipid accumulation score” value [2] is reported as inactive: 0.493.
With `CN1CCN(C2=Nc3ccccc3Oc3ccc(Cl)cc32)CC1` [Loxapine succinate] the “scaled lipid accumulation score” value was inactive: 0.3, the “scaled lipid accumulation score” value [3] was inactive: 0.253 and the “scaled lipid accumulation score” value [2] was inactive: 0.708 and inactive: 0.486.
For `CCCC/C=C\CCCCCCCC(=O)OC` [Myristoleic Acid methyl ester], the “scaled lipid accumulation score” value [4] was inactive: ≤ 0.
In the case of `CCOC(=O)[C@@H](N)Cc1ccc(-c2cc(O[C@H](c3ccc(Cl)cc3-n3ccc(C)n3)C(F)(F)F)nc(N)n2)cc1` [Telotristat Etiprate (LX 1606 Hippurate)], the “scaled lipid accumulation score” value [1] is reported as inactive: ≤ 0 and the “scaled lipid accumulation score” value [2] is reported as inactive: 0.235.
With `Oc1ccc2ccccc2c1` [beta-NAPHTHOL] the “scaled lipid accumulation score” value [2] was inactive: ≤ 0.
In the case of `CC(=O)OCC(=O)[C@@]1(O)[C@@H](C)C[C@H]2[C@@H]3CCC4=CC(=O)C=C[C@]4(C)[C@@]3(F)[C@@H](O)C[C@@]21C`, the “scaled lipid accumulation score” value [2] is reported as inactive: ≤ 0.
In the case of `NCCC[C@](N)(C(=O)O)C(F)F` (racemic) [DL-alpha-Difluoromethylornithine hydrochloride], the “scaled lipid accumulation score” value [2] is reported as inactive: ≤ -0.07.
In the case of `c1ccc(NCc2ccc(CNc3ccccn3)cc2)nc1`, the “scaled lipid accumulation score” value [1] is reported as inactive: ≤ 0 and the “scaled lipid accumulation score” value [2] is reported as inactive: ≤ 0.
With `CCOC(=O)c1cnc2ccc(-c3cncc(NS(=O)(=O)c4ccccc4)c3)cn12` the “scaled lipid accumulation score” value [2] was active: 0.915.
With `COc1ccc(CN2C(=O)C(=O)c3cc(OC(F)(F)F)ccc32)cc1` the “scaled lipid accumulation score” value [2] was inactive: 0.373.
For `Cc1nnc(C(=O)NC(C)(C)c2nc(C(=O)NCc3ccc(F)cc3)c(O)c(=O)n2C)o1` [Raltegravir (MK-0518)], the “scaled lipid accumulation score” value [1] was inactive: 0.018 and the “scaled lipid accumulation score” value [2] was inactive: 0.008.
With `O=C(NC[C@H]1CN(c2ccc(N3CCOCC3=O)cc2)C(=O)O1)c1ccc(Cl)s1` [Rivaroxaban] the “scaled lipid accumulation score” value [1] was inactive: ≤ 0 and the “scaled lipid accumulation score” value [2] was inactive: ≤ 0.
With `CC(C)c1nn(-c2c(Cl)cccc2Cl)c2nc(Cc3ccc(OCCO)cc3)[nH]c(=O)c12` the “scaled lipid accumulation score” value [5] was inactive: 0.074, the “scaled lipid accumulation score” value [6] was inactive: 0.071 and the “scaled lipid accumulation score” value [7] was inactive: 0.275. The “scaled lipid accumulation score” value [2] was inactive: 0.136.
In the case of `C[C@@H]1C[C@H]2[C@@H]3C[C@H](F)C4=CC(=O)C=C[C@]4(C)[C@@]3(F)[C@@H](O)C[C@]2(C)[C@@]1(O)C(=O)CO` [Flumethasone], the “scaled lipid accumulation score” value is reported as inactive: ≤ 0, the “scaled lipid accumulation score” value [1] is reported as inactive: ≤ 0 and the “scaled lipid accumulation score” value (library stock concentration: 4.9 mM) is reported as inactive: ≤ 0. For the same molecule, the “scaled lipid accumulation score” value [2] was inactive: ≤ -0.001.
In the case of `Cc1cc2c(cc1CC(=O)c1sccc1S(=O)(=O)Nc1onc(C)c1Cl)OCO2` [Sitaxentan sodium], the “scaled lipid accumulation score” value [1] is reported as inactive: ≤ 0 and the “scaled lipid accumulation score” value [2] is reported as inactive: ≤ 0.
In the case of `COc1cc(N2CCC(N3CCN(C)CC3)CC2)ccc1Nc1ncc(Cl)c(-c2c[nH]c3ccccc23)n1`, the “scaled lipid accumulation score” value [5] is reported as inactive: 0.057 and the “scaled lipid accumulation score” value [6] is reported as inactive: 0.358.
With `O=C(O)Cc1ccc(-c2ccccc2)cc1` [Felbinac] the “scaled lipid accumulation score” value was inactive: ≤ 0.
With `O=C(O)c1cn(-c2ccc(F)cc2)c2cc(N3CCNCC3)c(F)cc2c1=O` [Sarafloxacin HCl] the “scaled lipid accumulation score” value [8] was inactive: ≤ 0.
For `O=C(O)c1cn(-c2ccc(F)cc2)c2cc(N3CCNCC3)c(F)cc2c1=O` [Sarafloxacin hydrochloride], the “scaled lipid accumulation score” value (library stock concentration: 4.7 mM) was inactive: 0.013 and the “scaled lipid accumulation score” value [2] was inactive: ≤ -0.027.
With `C[C@@H](NCc1cc(Br)cc2[nH]c(=O)c(=O)[nH]c12)P(=O)(O)O` the “scaled lipid accumulation score” value [2] was inactive: ≤ -0.006.
For `COc1cccc(/C=N/N=C/c2cccc(OC)c2)c1`, the “scaled lipid accumulation score” value [2] was inactive: ≤ 0.
For `COc1ccc(NC(=O)c2cc(OCCCN(C)C)nn2Cc2ccccc2)cc1.Cl` [CFM 1571 hydrochloride], the “scaled lipid accumulation score” value [2] was active: 1.11.
For `CC/C=C\C/C=C\C/C=C\C/C=C\C/C=C\CCCC(=O)O` [Eicosapentaenoic Acid], the “scaled lipid accumulation score” value [4] was inactive: 0.001.
With `CC/C=C\C/C=C\C/C=C\C/C=C\C/C=C\CCCC(=O)O` [Eicosapentaenoic acid (20:5 n-3)] the “scaled lipid accumulation score” value [4] was inactive: 0.009.
In the case of `CC1CCN(c2cc(N3CCN(C)CC3)ccc2NC(=O)c2cc(C#N)c[nH]2)CC1`, the “scaled lipid accumulation score” value [2] is reported as active: 1.32.
For `CCCCC1CCC(c2nc(-c3ccncc3)no2)CC1` (stereo unspecified), the “scaled lipid accumulation score” value [4] was inactive: 0.03 and the “scaled lipid accumulation score” value [2] was inactive: ≤ -0.001.
For `O=C1/C(=C/c2cccs2)CC/C1=C\c1cccs1`, the “scaled lipid accumulation score” value [2] was inactive: ≤ 0.
`O=C1NC(=O)/C(=C\c2cccc(C(F)(F)F)c2)S1` [PIM12 kinase inhibitor V] was tested, and the “scaled lipid accumulation score” value [5] was inactive: ≤ -0.001, the “scaled lipid accumulation score” value [6] was inactive: ≤ -0.001 and the “scaled lipid accumulation score” value [7] was inactive: ≤ -0.001. For the same molecule, the “scaled lipid accumulation score” value [2] was inactive: 0.011.
In the case of `NC(=O)N[C@@H](CCC(=O)O)C(=O)O`, the “scaled lipid accumulation score” value [2] is reported as inactive: ≤ 0.
With `CC(=O)[C@@]12O[C@](C)(c3ccccc3)O[C@@H]1C[C@H]1[C@@H]3CCC4=CC(=O)CC[C@]4(C)[C@H]3CC[C@@]12C` the “scaled lipid accumulation score” value [2] was inactive: ≤ 0.
`COC(=O)[C@H](c1ccccc1Cl)N1CCc2sccc2C1` [clopidogrel] was tested, and the “scaled lipid accumulation score” value [2] was inactive: 0.005.
`COC(=O)[C@H](c1ccccc1Cl)N1CCc2sccc2C1` [Clopidogrel sulfate] was tested, and the “scaled lipid accumulation score” value (library stock concentration: 4.8 mM) was inactive: ≤ 0, the “scaled lipid accumulation score” value (library stock concentration: 6.2 mM) was inactive: 0.03 and the “scaled lipid accumulation score” value [2] was inactive: ≤ -0.027.
In the case of `COC(=O)[C@H](c1ccccc1Cl)N1CCc2sccc2C1` [Clopidogrel], the “scaled lipid accumulation score” value [1] is reported as inactive: ≤ 0 and the “scaled lipid accumulation score” value [2] is reported as inactive: ≤ 0.
With `C[C@]12CCC(=O)C=C1CC[C@@H]1[C@@H]2C(=O)C[C@@]2(C)[C@H]1CC[C@]2(O)C(=O)CO` the “scaled lipid accumulation score” value [2] was inactive: 0.061.
With `C[C@]12CCC(=O)C=C1CC[C@@H]1[C@@H]2C(=O)C[C@@]2(C)[C@H]1CC[C@]2(O)C(=O)CO` [Cortisone] the “scaled lipid accumulation score” value was inactive: ≤ 0 and the “scaled lipid accumulation score” value [2] was inactive: ≤ 0.
In the case of `COCCCC/C(=N\OCCN)c1ccc(C(F)(F)F)cc1` [Fluvoxamine maleate], the “scaled lipid accumulation score” value is reported as inactive: 0.592, the “scaled lipid accumulation score” value [1] is reported as inactive: 0.347 and the “scaled lipid accumulation score” value [2] is reported as inactive: 0.81 and inactive: 0.545.
`COCCCC/C(=N\OCCN)c1ccc(C(F)(F)F)cc1` [Fluvoxamine] was tested, and the “scaled lipid accumulation score” value [2] was inactive: 0.69.
For `CN(C)CCC=C1c2ccccc2Sc2ccc(Cl)cc21` [Chlorprothixene], the “scaled lipid accumulation score” value [2] was active: 1.03.
In the case of `NC(=O)N1CCC(CC(=O)N2CCC([C@H]3c4ncc(Br)cc4CCc4cc(Cl)cc(Br)c43)CC2)CC1` [Lonafarnib], the “scaled lipid accumulation score” value [1] is reported as inactive: 0.06 and the “scaled lipid accumulation score” value [2] is reported as inactive: 0.101.
In the case of `O=C1N[C@H](C(=O)O)CS1` [4-Thiazolidinecarboxylic acid, 2-oxo-, (R)- [CAS]], the “scaled lipid accumulation score” value [2] is reported as inactive: ≤ 0.
For `C[C@H](N[C@@H](CCc1ccccc1)C(=O)O)C(=O)N1CCC[C@H]1C(=O)O` [Enalaprilat dihydrate], the “scaled lipid accumulation score” value [2] was inactive: ≤ 0.
`C[C@H](N[C@@H](CCc1ccccc1)C(=O)O)C(=O)N1CCC[C@H]1C(=O)O` [Enalaprilat Dihydrate] was tested, and the “scaled lipid accumulation score” value [1] was inactive: ≤ 0 and the “scaled lipid accumulation score” value [2] was inactive: ≤ 0.
With `C[C@H](N[C@@H](CCc1ccccc1)C(=O)O)C(=O)N1CCC[C@H]1C(=O)O` [Enalaprilat] the “scaled lipid accumulation score” value (library stock concentration: 5.7 mM) was inactive: ≤ -0.006.
For `C[C@H](N[C@@H](CCc1ccccc1)C(=O)O)C(=O)N1CCC[C@H]1C(=O)O`, the “scaled lipid accumulation score” value [2] was inactive: ≤ 0.
In the case of `CN(C)[C@@H]1C(O)=C(C(N)=O)C(=O)[C@@]2(O)C(O)=C3C(=O)c4c(O)cccc4[C@@](C)(O)[C@H]3C[C@@H]12` [Tetracycline hydrochloride], the “scaled lipid accumulation score” value is reported as inactive: ≤ 0 and the “scaled lipid accumulation score” value [2] is reported as inactive: ≤ 0.
`CN(C)[C@@H]1C(O)=C(C(N)=O)C(=O)[C@@]2(O)C(O)=C3C(=O)c4c(O)cccc4[C@@](C)(O)[C@H]3C[C@@H]12` was tested, and the “scaled lipid accumulation score” value [2] was inactive: ≤ 0.
`CN(C)[C@@H]1C(O)=C(C(N)=O)C(=O)[C@@]2(O)C(O)=C3C(=O)c4c(O)cccc4[C@@](C)(O)[C@H]3C[C@@H]12` [Tetracycline] was tested, and the “scaled lipid accumulation score” value [3] was inactive: ≤ 0.
In the case of `CN1CCN(S(=O)(=O)c2ccc(-c3cnc(N)c(C(=O)Nc4cccnc4)n3)cc2)CC1`, the “scaled lipid accumulation score” value [1] is reported as inactive: 0.821.
In the case of `COc1ccc(-c2coc3cc(O)ccc3c2=O)cc1` [Formononetin], the “scaled lipid accumulation score” value [1] is reported as inactive: ≤ 0 and the “scaled lipid accumulation score” value [2] is reported as inactive: ≤ 0 and inactive: ≤ -0.027.
`CNc1nc(-c2ccc3c(N)n[nH]c3c2)cc(N2C[C@@H](C(=O)NC3CCCCC3)CC[C@H]2C)n1` was tested, and the “scaled lipid accumulation score” value [5] was inactive: ≤ -0.016, the “scaled lipid accumulation score” value [6] was inactive: ≤ -0.016 and the “scaled lipid accumulation score” value [7] was inactive: ≤ -0.016. The “scaled lipid accumulation score” value [1] was inactive: ≤ 0 and the “scaled lipid accumulation score” value [2] was inactive: 0.741 and inactive: 0.773.
For `Oc1c(Br)cc(Br)c2cccnc12` [Broxyquinoline], the “scaled lipid accumulation score” value [1] was inactive: ≤ 0 and the “scaled lipid accumulation score” value [2] was inactive: ≤ -0.001 and inactive: ≤ 0.
`Nc1ccc2ncnc(NCCc3ccc(Oc4ccccc4)cc3)c2c1` was tested, and the “scaled lipid accumulation score” value [5] was inactive: ≤ -0.001, the “scaled lipid accumulation score” value [6] was inactive: ≤ -0.001 and the “scaled lipid accumulation score” value [7] was inactive: ≤ -0.001. The “scaled lipid accumulation score” value [1] was inactive: ≤ 0 and the “scaled lipid accumulation score” value [2] was inactive: ≤ -0.001 and inactive: 0.642.
With `CCC(=O)O[C@H]1CC[C@H]2[C@@H]3CCc4cc(O)ccc4[C@H]3CC[C@]12C` [Estradiol propionate] the “scaled lipid accumulation score” value (library stock concentration: 6.1 mM) was inactive: 0.254 and the “scaled lipid accumulation score” value [2] was inactive: 0.443.
In the case of `COc1cc2c(cc1OC)-c1cc3nc4ccccc4nc3n1C(C)(C)C2`, the “scaled lipid accumulation score” value [2] is reported as active: 0.923.
`CC(C)C[C@H](NC(=O)[C@H](Cc1ccccc1)NC(=O)c1cnccn1)B(O)O` [Bortezomib] was tested, and the “scaled lipid accumulation score” value [8] was inactive: 0.806.
With `CC(C)C[C@H](NC(=O)[C@H](Cc1ccccc1)NC(=O)c1cnccn1)B(O)O` [Bortezomib (PS-341)] the “scaled lipid accumulation score” value [1] was inactive: 0.484 and the “scaled lipid accumulation score” value [2] was inactive: 0.649.
